In the antibiotic and cytotoxicity screens of Wong et al. (2023):
The other results are listed elsewhere or left out.

What was measured:
HSkMC = human skeletal muscle cells; experiment: cytotoxicity call (relative viability < 0.9); settings: 10 µM
HepG2 = experiment: cytotoxicity call (relative viability < 0.9); settings: 10 µM
S. aureus RN4220 = experiment: growth inhibition call (relative growth <= 0.2); settings: 50 µM

Compound	cytotoxicity call (HSkMC)	cytotoxicity call (HepG2)	growth inhibition call (S. aureus RN4220)
C[C@H]1CN([C@@H](C)CO)C(=O)c2cc(C#Cc3cccnc3)cnc2O[C@H]1CN(C)S(C)(=O)=O	inactive	inactive	inactive
C[C@@H]1CN([C@H](C)CO)C(=O)c2cc(NC(=O)CCC(F)(F)F)ccc2O[C@@H]1CN(C)Cc1ccc(Oc2ccccc2)cc1	inactive	inactive	inactive
CN1CCN(C)C1=O	inactive	inactive	inactive
CO[C@H]1CN(C)C(=O)c2ccc(NC(=O)C3CCOCC3)cc2OC[C@@H](C)N(Cc2cccnc2)C[C@H]1C	inactive	inactive	inactive
COc1ccc(CN(C)C[C@@H]2OCCCC[C@@H](C)Oc3ccc(NS(=O)(=O)c4ccc(C)cc4)cc3C(=O)N([C@H](C)CO)C[C@H]2C)cc1	inactive	inactive	inactive
C[C@@H]1CN([C@H](C)CO)C(=O)c2c(c3ccccc3n2C)-c2ccccc2CO[C@H]1CN(C)C(=O)Nc1ccccc1	inactive	inactive	inactive
C[C@@H]1CCCCO[C@@H](CN(C)C(=O)NC2CCCCC2)[C@H](C)CN([C@@H](C)CO)C(=O)c2cc(NC(=O)CCCCCC(=O)Nc3ccccc3N)ccc2O1	inactive	inactive	inactive
C[C@@H]1CCCCO[C@H](CN(C)C(=O)NC2CCCCC2)[C@H](C)CN([C@@H](C)CO)C(=O)c2cc(NC(=O)Nc3cccc4ccccc34)ccc2O1	inactive	inactive	inactive
Cc1noc(C)c1S(=O)(=O)N(C)C[C@@H]1Oc2ccc(NC(=O)Cn3cnnn3)cc2CC(=O)N([C@@H](C)CO)C[C@H]1C	inactive	inactive	inactive
COc1ccc(C#Cc2ccc3c(c2)[C@]2(C(=O)N3)[C@H](c3ccc(OCCO)cc3)N3[C@H](c4ccccc4)[C@H](c4ccccc4)OC(=O)[C@H]3[C@@H]2C(=O)NC[C@H](O)c2ccccc2)cc1	inactive	inactive	inactive
C[C@H](CO)N1C[C@H](C)[C@@H](CN(C)S(=O)(=O)c2cn(C)cn2)Oc2c(NC(=O)c3ccc(-c4nccs4)cc3)cccc2C1=O	inactive	inactive	inactive
CCS(=O)(=O)N(C)C[C@H]1OCc2ccccc2-c2c(n(C)c3ccccc23)C(=O)N([C@H](C)CO)C[C@H]1C	inactive	inactive	inactive
C[C@@H]1CCCCO[C@H](CN(C)Cc2ccc(C(F)(F)F)cc2)[C@H](C)CN([C@@H](C)CO)C(=O)c2cc(NC(=O)c3ccccc3)ccc2O1	inactive	active	inactive
C[C@H]1CN([C@@H](C)CO)C(=O)c2c(c3ccccc3n2C)-c2ccccc2CO[C@@H]1CN(C)Cc1ccc(F)cc1	inactive	inactive	inactive
COc1ccc(C(=O)Nc2ccc(CN3C(=O)[C@@]4(O[C@@H](CC(=O)N5CCC[C@H]5CO)[C@H]([Si](C)(C)c5ccc(OC)cc5)[C@H]4C)c4ccccc43)cc2)cc1	inactive	inactive	inactive
COc1ccccc1S(=O)(=O)N[C@@H]1CC[C@@H](CCNC(=O)C2CC2)O[C@H]1CO	inactive	inactive	inactive
Cc1ccc(S(=O)(=O)N(C)C[C@H]2OCCCC[C@@H](C)Oc3ccc(NC(=O)Nc4ccc5c(c4)OCO5)cc3C(=O)N([C@H](C)CO)C[C@@H]2C)cc1	inactive	inactive	inactive
C[C@H](CO)N1C[C@H](C)[C@H](CN(C)Cc2ccc(C(=O)Nc3ccccc3N)cc2)Oc2ccc(NC(=O)Nc3ccccc3)cc2CC1=O	inactive	inactive	inactive
C[C@H](CO)N1C[C@H](C)[C@H](CN(C)S(=O)(=O)c2ccc(F)cc2)Oc2ncc(-c3ccccc3)cc2C1=O	inactive	inactive	inactive
COc1ccc(S(=O)(=O)Nc2ccc3c(c2)CC(=O)N([C@@H](C)CO)C[C@H](C)[C@H](CN(C)S(=O)(=O)c2ccccc2)O3)cc1	inactive	inactive	inactive
CCCCC[C@H](O)/C=C/[C@H]1[C@H](O)CC(=O)[C@@H]1C/C=C\CCCC(=O)O	inactive	inactive	inactive
C[C@@H]1CN([C@@H](C)CO)C(=O)Cc2cc(NC(=O)Nc3ccc(C(F)(F)F)cc3)ccc2O[C@H]1CN(C)Cc1ccc(Cl)c(Cl)c1	active	active	inactive
COc1ccc(Cn2cc[nH]c(=O)c2=O)cc1	inactive	inactive	inactive
C[C@@H]1CCCCO[C@@H](CN(C)CC2CC2)[C@H](C)CN([C@@H](C)CO)C(=O)c2cc(NC(=O)C3CCCCC3)ccc2O1	inactive	inactive	inactive
COc1ccc(C(=O)C=Cc2ccccc2)cc1	inactive	active	inactive
CCNC1=N[C@@H]2[C@@H](O)[C@H](O)[C@@H](CO)O[C@@H]2S1	inactive	inactive	inactive
C[C@H]1CN([C@@H](C)CO)S(=O)(=O)c2ccc(-c3cccnc3)cc2O[C@H]1CN(C)C(=O)c1ccc2c(c1)OCO2	inactive	inactive	inactive

Compound	cytotoxicity call (HSkMC)	cytotoxicity call (HepG2)	growth inhibition call (S. aureus RN4220)
C[C@H](CO)N1C[C@H](C)[C@@H](CN(C)S(=O)(=O)c2cn(C)cn2)Oc2ncc(C3=CCCC3)cc2C1=O	inactive	inactive	inactive
NC(=O)CSCC(=O)Nc1ccccc1F	inactive	inactive	inactive
COc1ccc(NC(=O)Nc2ccc3c(c2)C(=O)N([C@@H](C)CO)C[C@@H](C)[C@H](CN(C)S(=O)(=O)c2ccccc2)OCCCC[C@H](C)O3)cc1	inactive	inactive	inactive
COCC#Cc1cnc2c(c1)C(=O)N([C@@H](C)CO)C[C@H](C)[C@@H](CN(C)C(=O)Nc1ccccc1OC)O2	inactive	inactive	inactive
C[C@@H]1CN([C@@H](C)CO)C(=O)Cc2cc(NC(=O)Nc3cccc4ccccc34)ccc2O[C@@H]1CN(C)Cc1ccc(Cl)c(Cl)c1	inactive	active	inactive
C[C@H](CO)N1C[C@H](C)[C@H](CN(C)C(=O)NC2CCCCC2)Oc2ccc(NS(C)(=O)=O)cc2C1=O	inactive	inactive	inactive
Cc1ccc(NC(=O)[C@H]2CCCN(C(=O)c3c(C)cccc3F)[C@H]2c2ccc(NC3CCCC3)cc2)cc1C(F)(F)F	inactive	inactive	inactive
C[C@H]1CCCCO[C@H](CN(C)CC2CC2)[C@@H](C)CN([C@@H](C)CO)C(=O)c2cc(NC(=O)C3CCCCC3)ccc2O1	inactive	inactive	inactive
C[C@@H]1CN([C@@H](C)CO)S(=O)(=O)c2ccc(C#Cc3ccncc3)cc2O[C@@H]1CN(C)C(=O)C1CCCCC1	inactive	active	inactive
C[C@H]1CN([C@@H](C)CO)C(=O)c2cccc(NS(C)(=O)=O)c2O[C@@H]1CN(C)Cc1ccc2c(c1)OCO2	inactive	inactive	inactive
COc1ccc(NC(=O)Nc2cccc3c2O[C@@H](CN(C)C(=O)Nc2cccc4ccccc24)[C@@H](C)CN([C@H](C)CO)C3=O)cc1	inactive	inactive	inactive
Cn1cnc(CCNC(=O)C[C@H]2CC[C@H]3[C@@H](COC[C@@H](O)CN3C(=O)Nc3ccc(Cl)cc3)O2)c1	inactive	inactive	inactive
C[C@@H]1CN([C@H](C)CO)C(=O)Cc2cc(N(C)C)ccc2O[C@H]1CN(C)S(=O)(=O)c1cn(C)cn1	inactive	inactive	inactive
COc1ccc(S(=O)(=O)Nc2cccc3c2O[C@@H](CN(C)CC2CC2)[C@H](C)CN([C@@H](C)CO)C3=O)cc1	inactive	inactive	inactive
CCc1nn(CCCN2CCN(c3cccc(Cl)c3)CC2)c(=O)n1CCOc1ccccc1	inactive	active	inactive
C[C@H](CO)N1C[C@H](C)[C@@H](CN(C)Cc2ccc(C(F)(F)F)cc2)Oc2ccc(NC(=O)CCC(F)(F)F)cc2C1=O	inactive	inactive	inactive
C[C@@H]1CN([C@@H](C)CO)C(=O)Cc2cc(NC(=O)Cc3ccccc3)ccc2O[C@@H]1CN(C)C(=O)Nc1ccc(C(F)(F)F)cc1	inactive	inactive	inactive
O=C(C[C@H]1CC[C@H]2[C@@H](COC[C@@H](O)CN2S(=O)(=O)c2ccc(Cl)cc2)O1)NCCN1CCCCC1	inactive	inactive	inactive
Cc1ccc(S(=O)(=O)N(C)C[C@@H]2Oc3c(NC(=O)C4CC4)cccc3C(=O)N([C@H](C)CO)C[C@@H]2C)cc1	inactive	inactive	inactive
CC(C)NC(=O)Nc1ccc2c(c1)C(=O)N([C@@H](C)CO)C[C@@H](C)[C@H](CN(C)S(=O)(=O)c1cn(C)cn1)OCCCC[C@@H](C)O2	inactive	inactive	inactive
C[C@@H]1CCCCO[C@H](CN(C)C(=O)CCC(F)(F)F)[C@H](C)CN([C@H](C)CO)C(=O)c2cc(NC(=O)Cc3ccccc3)ccc2O1	inactive	inactive	inactive
C[C@H]1CN([C@@H](C)CO)C(=O)c2cccc(NC(=O)c3cnccn3)c2O[C@@H]1CN(C)S(=O)(=O)c1ccccc1	inactive	inactive	inactive
C[C@H](CO)N1C[C@H](C)[C@H](CN(C)S(=O)(=O)c2cccc(F)c2)Oc2cc(C#CCN(C)C)ccc2S1(=O)=O	inactive	inactive	inactive
Cc1ccc(S(=O)(=O)Nc2ccc3c(c2)C(=O)N([C@@H](C)CO)C[C@@H](C)[C@@H](CN(C)S(=O)(=O)c2ccc(Cl)cc2)OCCCC[C@H](C)O3)cc1	inactive	inactive	inactive
O=C(C[C@@H]1C[C@H]2c3cc(NC(=O)Nc4ccc(C(F)(F)F)cc4)ccc3O[C@H]2[C@@H](CO)O1)NCc1ccc(Cl)cc1	inactive	inactive	inactive
C[C@H](CO)N1C[C@H](C)[C@H](CN(C)C(=O)Nc2ccc3c(c2)OCO3)Oc2ccc(NC(=O)c3ccncc3)cc2C1=O	inactive	inactive	inactive
